According to the supplement of paper PMC3334620:
In all, about 33,000 sequences were measured (“E-score (-0.5 to 0.5)”: median about -0.056, highest 2% from about 0.38 on). Some of the results follow.

target: Stb4 (UniProt P50104); experiment: PBM E-score (8-mer binding enrichment) (E-score (-0.5 to 0.5)); higher = stronger / more preferred TF binding; most listed sequences are background and not binding sites; details: protein concentration: 200 nM; construct: GST-DNA-binding domain
In short: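 GST-tagged yeast TFs (full-length or DNA-binding domain) were made by PURExpress in vitro transcription/translation and applied at about 100-200 nM to universal all-10-mer Agilent arrays. The arrays were made double-stranded by primer extension, on fresh or once-stripped slides. Bound protein was detected with fluorescent anti-GST, and scans were normalised with masliner. Each ungapped eight-base word, pooled with its reverse complement, received an E-score (modified Wilcoxon-Mann-Whitney statistic) from the Universal PBM Analysis Suite.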

Sequence | PBM E-score
CAAACCCC | -0.0815
AACAGCGT | -0.0731
CTGAGGCC | 0.0212
TGCTAGAA | 0.029
GTCTCCTA | -0.269
ATTAACTG | -0.117
GATCGGAA | 0.425
GATAATGC | -0.0171
GAATAAGC | -0.0696
ACAAAGAA | -0.019
ATCGGTAA | 0.336
AGGCACAG | -0.199
AGCCTTGA | -0.0997
CACGGGCG | 0.12
CTAGGGTC | -0.226
CAGACACA | -0.186
AGTTGCTA | 0.121
CGAGGCAA | 0.217
CGAATAAA | 0.0743
TCACTCGA | -0.126
AATTATGC | 0.0691
GCCTCAGC | -0.219
CCGCCCGG | 0.328
GAGCAGTA | 0.0469
CATCTATA | -0.101

Sequence | PBM E-score
AATGATCA | -0.176
GCATTCGC | -0.128
TGAGTCAA | -0.0907
AGCCAGCA | -0.264
CTACTTTA | -0.155
CTCGTGTC | -0.196
AACGGTAC | 0.172
ATAGCTAA | -0.178
ATGGCTAA | -0.0251
AAACGCGG | 0.227
GTTCACGA | -0.107
AAGATTCT | -0.229
GGATGTAC | 0.0116
CAGTTCTA | -0.113
CTCTACAG | -0.151
ATTAAGCC | 0.252
CTCTGAAA | 0.0179
AGCGACCA | -0.219
ACTAGGAA | -0.143
ATCTCCCG | 0.332
CGTTAGTC | -0.017
AATTAGGT | -0.0926
CGGACGTA | 0.203
CCGCCGAC | 0.217
ATCGAATC | 0.00298

Sequence | PBM E-score
GCAAATGC | -0.169
ACATGTCC | -0.041
CAGTACAA | -0.117
AAAAGCTT | 0.0879
GTACGGGA | 0.222
AATCTCAC | -0.106
ATTTCAAG | -0.168
GGCAGTAC | -0.0185
CCATTGGG | -0.255
GTATACAA | -0.045
GCGCATCC | 0.133
AAGAGAGA | -0.307
GCCGGTAC | 0.134
CATCCTCA | -0.154
AATTCCAG | 0.00849
AATTTAAG | -0.0441
CAGTGATA | -0.0876
GAATACAA | 0.129
GCGAAAGA | -0.166
AGCGAAAT | 0.0212
CGTTGCGC | -0.00815
GACAAAAA | 0.127
CGAAGGTC | 0.189
ATCGGGGG | 0.195
ATTGGCTC | -0.0924

Sequence | PBM E-score
ACGCCCTC | -0.0266
ATCTATGG | -0.184
AATGGGTG | 0.0109
ATACTTGG | -0.115
GGGGAGTA | -0.0839
AAAGGCCG | 0.0672
GTGTCAAA | -0.04
ACGAGACA | -0.11
ATTCACTC | 0.0122
AAAACCAA | -0.0185
ACTGTTCT | -0.164
ATGAATTA | -0.0639
CCTACGTC | -0.0541
CATTAACC | 0.0201
ATCAGTCG | 0.018
CATTCCCG | 0.328
AGGAAACA | -0.0661
AGGATAAA | -0.0635
AATTCGCG | -0.0343
ACCAACGC | 0.00824
CTGATGGC | -0.0293
ATTGTTAG | -0.172
GTATTCTA | -0.18
TAGCTCGA | -0.131
AATTTGTA | 0.138

Sequence | PBM E-score
CCTTCTGC | -0.17
GACGACCA | -0.2
AATCAGCA | -0.244
ACAACATA | -0.156
CCATCACG | -0.063
AGACTTGG | -0.155
ACACGACC | -0.146
GTAGTGCA | -0.128
GAACTGTA | -0.0192
CTGTCAAC | -0.237
CTGCTCAC | -0.294
CAAATAGG | -0.131
GGCATCAA | -0.197
ACCTGCGA | -0.196
ATAGTTCC | 0.264
AACTAACT | 0.0909
GCCGGTAA | 0.306
CCGGCCTC | 0.234
CATCTCGA | -0.252
TCAAAAGA | -0.149
GCAGAACC | -0.0538
CAAATTCG | 0.237
GAATCTTA | -0.0785
ATAAGTGC | -0.0881
CAAAACCA | -0.15

Sequence | PBM E-score
GTCTCAAA | -0.0192
GATTCACA | -0.094
AAAACCTG | -0.253
GTAGGGAA | -0.0829
GTGGCTGA | -0.0157
ACAGCTTC | 0.0141
GTCTTACA | -0.193
CAGTTTAG | -0.227
CGGGATGA | 0.269
CAAACCTC | -0.155
CGTCCTGA | -0.249
CCCTCGTC | 0.0826
CTCAAAAC | -0.146
CTCTAAGA | -0.00116
GACTCAAA | -0.137
CCTGCCCC | -0.147
CCACTTAG | -0.241
AACGCTCA | -0.229
CTATTATC | 0.126
CAAACACC | -0.056
ATTCCGGC | 0.354
CAATCTGC | -0.0793
GATGAGTA | -0.169
CAGCGTCC | 0.0131
CAAAATCC | 0.171

Sequence | PBM E-score
ATAACCAA | -0.0585
AAGTCACG | 0.00315
ATAATCCC | 0.166
AGCCACAA | -0.00236
CCGATGGA | 0.27
GAAGACAC | 0.0641
CGTTTAAA | -0.12
AATGCACG | 0.139
AGTTTAGC | -0.0929
CAGTTTAC | -0.127
GACCTCGC | -0.169
GAACTCGA | -0.115
AGAAAAGA | -0.0685
CACCAATG | -0.15
AGAGTCGG | 0.183
TCTACGCA | -0.159
GCAACCGA | 0.259
GGATGTGA | 0.254
TCTAAGCA | -0.185
AATAGTGG | -0.0784
AAAAATCT | 0.11
GGAATTCC | 0.232
AACGAGGA | -0.00896
GAACCCGC | 0.145
CGGTCGGC | 0.318

Sequence | PBM E-score
AGAGTTAA | -0.2
AACCCGTG | -0.107
AACTTGCC | 0.139
CGAAGTTC | 0.157
AGAATTAG | -0.092
GTTTGTCA | -0.0445
ATGCCTAC | -0.156
TGAAGCAA | -0.248
CCTGACTA | -0.221
ATAATCTC | -0.0134
GGTCTTTA | 0.057
ATGCGAAC | 0.0435
ATCGTTAG | -0.133
AATCGAGA | -0.161
CATTTACG | -0.0904
CCGCGCTC | 0.128
AACCTGCT | -0.0315
AATAGCAA | -0.105
CGTAGTAG | -0.0531
ATACGGAG | 0.072
ATTTCGAG | -0.0811
GCTTCTTA | -0.00913
GAATCGCA | -0.141
CGTAGCGC | -0.0733
ATGCGTTA | 0.0365

Sequence | PBM E-score
ATTGGTAG | -0.177
ATCCCGAC | 0.387
AAAAGCAA | -0.0503
GGTAAGTA | 0.148
GCCGTAGA | 0.193
ACCGATAC | 0.177
ACAAGACA | -0.104
AGGGGCAG | -0.0943
AGGTCCCA | -0.224
CCAGGTGC | 0.0398
AGTAGGTC | -0.137
AGTAGGAA | -0.251
CGGGGGAA | 0.224
ACCTAGAC | 0.00327
CAGGTCCG | 0.131
CCGGTCCA | 0.0504
AGCTTAGG | -0.0751
CTAGTTCC | 0.215
CTCCAAAC | -0.0386
